By % Inhibition is commonly meant the relative decrease from the control value, in per cent.

About 540 (0.36%) of roughly 150,000 compounds showed an effect of 50% or more. The list shows a part of the results.

The subject of this assay is Plasmodium falciparum. Description: Primary screen in NF54 nanoGlo assay, in single point, at 2uM, 72h; a lower Z score goes with more inhibition. The class given is functional, Erythrocyte. Particulars: timepoint 72 hour.
As to `CC1=C(Cc2cn(C[C@H](O)c3cccnc3)nn2)C(C)(C)CCC1`, the “% Inhibition” value is -8% and the Z score came out at 1.13.

`COc1ccc(N2C(=O)N(c3ccc(F)cc3)C3CS(=O)(=O)CC32)cc1` (configuration not stated): the “% Inhibition” value is reported as 3% and the Z score was -0.35.

Take `COc1ccc(N2CCN(C(=O)Cc3coc4ccc(C)cc34)CC2)cc1`: the “% Inhibition” value is 2% and the Z score is listed as -0.28.

Regarding `Cc1cc(C)c2[nH]c(C(=O)N(C)Cc3c(C)noc3C)c(C)c2c1`, the “% Inhibition” value is listed as -6% and the Z score stood at 1.26.

Turning to `CNc1nc(C)c(C(=O)N(C)Cc2csc(-c3ccccc3)n2)s1`, the “% Inhibition” value was -5% and the Z score worked out at 0.78.

For the molecule `Cn1cncc1-c1ccc(C(=O)N2CCC[C@H](C(=O)N3CCCC3)C2)cc1`, the “% Inhibition” value came out at 1% and the Z score is -0.23.

As for `O=C(c1ccc(CO)o1)N1CC[C@H]2[C@H](CCC(=O)N2CCc2ccccn2)C1`, the “% Inhibition” value was -5% and the Z score came out at 0.61.

With `Brc1ccc(-c2noc(C3CCCCC3)n2)o1`, the “% Inhibition” value is 1% and the Z score was -0.15.

For the molecule `Cn1cccc(C(=O)Nc2cnn(C[C@H]3COc4ccccc4O3)c2)c1=O`, the “% Inhibition” value is 10% and the Z score is -1.3.

For `O=C(NCc1nccnc1-c1ccoc1)c1cncc(Br)c1`, the “% Inhibition” value came out at 13% and the Z score is -1.61.

As for `CCc1cc(N2CCC[C@H](c3nnc(Cn4ccnc4C)n3C)C2)nc(C)n1`, the “% Inhibition” value amounted to 0% and the Z score came to 0.07.

In the case of `O=C(Nc1cccc(-c2cn[nH]c2)c1)C(F)(F)Cl`, the “% Inhibition” value amounted to 0% and the Z score is reported as 0.06.

As to `CCNc1ncc(CN2CCc3nnc(Cc4cccnc4)n3CC2)cn1`, the “% Inhibition” value turned out to be 2% and the Z score is -0.41.

For the molecule `O=C(NCc1ccncc1)C1CC1c1cccc2ccccc12` (configuration not stated), the “% Inhibition” value is 4% and the Z score was -0.61.

For the molecule `CCn1c(C)nnc1CS(=O)(=O)c1cccc(Br)c1`, the “% Inhibition” value came out at 0% and the Z score was -0.04.

Turning to `COc1nc(NC(=O)[C@H]2CCc3[nH]nc(C(F)(F)F)c3C2)n[nH]1`, the “% Inhibition” value amounted to 0% and the Z score was -0.03.

On to `c1cc(CO[C@H]2CCOC2)cc(-c2cnn3c2OCCC3)c1`, for which the “% Inhibition” value was -15% and the Z score came to 1.4.

For the molecule `CC(C)CNc1nc(-c2ccccc2Cl)c2c(N)n(C)nc2n1`, the “% Inhibition” value is recorded as -1% and the Z score is 0.2.

Regarding `COc1cccc(CN2C(=O)CCCC[C@H]2C(=O)NCCc2c[nH]c3ccc(OC)cc23)c1`, the “% Inhibition” value is listed as -14% and the Z score is 1.65.

Consider `O=C(NCCCNC(=O)[C@@H]1CCCN1C(=O)COc1ccc(Cl)cc1)c1ccc(F)cc1`, for which the “% Inhibition” value is -5% and the Z score was found to be 0.86.

Take `COc1cc(N2C[C@@H](C(=O)N3CCn4ncnc4C3)CC2=O)cc(OC)c1OC`: the “% Inhibition” value was -13% and the Z score amounted to 1.17.

For the molecule `CCO[C@H]1COC[C@@H]1n1cnc2c(C)cc(Cl)cc2c1=O`, the “% Inhibition” value was -4% and the Z score stood at 0.7.

For `Cc1ccccc1CC(=O)Nc1ccc(-c2nc(-c3ccccc3)co2)cc1`, the “% Inhibition” value was -9% and the Z score was determined as 1.12.

For `O=C(Nc1nccc(-c2cncc(F)c2)n1)[C@H]1CCCO1`, the “% Inhibition” value is given as -8% and the Z score amounted to 1.16.

For `O=C(NCCCNc1cccc(F)c1)c1cccnc1`, the “% Inhibition” value worked out at 27% and the Z score is recorded as -3.06.

In the case of `CC(=O)N[C@@H](C)c1cccc(N2CCOC2=O)c1`, the “% Inhibition” value was -5% and the Z score is on record as 0.58.

For `CCNC(=O)[C@@H]1C[C@H](NCc2cc(C)ccc2C)CN1Cc1cccc2ccccc12`, the “% Inhibition” value is recorded as 14% and the Z score is reported as -1.88.

In the case of `Cc1ccccc1Cn1cnc2c1c(=O)n(C1CC1)c(=O)n2-c1ccccc1C`, the “% Inhibition” value is reported as 5% and the Z score is given as -0.48.

Regarding `N#C[C@H](c1nc2ccccc2nc1N1CCN(c2ccc(F)cc2)CC1)S(=O)(=O)c1cccs1`, the “% Inhibition” value was -9% and the Z score is on record as 0.81.

Take `CC[C@H](C)N(Cc1c(-c2ccccc2)nn(C)c1N(C)C)C(=O)C1CCC1`: the “% Inhibition” value is given as -4% and the Z score was determined as 0.84.

`Cc1nnc([C@@H]2CC3(CCN(C(=O)c4cccnc4)CC3)CN2Cc2ccccc2)o1`: the “% Inhibition” value was determined as 0% and the Z score was -0.06.

On to `Cc1nn(-c2ccncc2F)c(C)c1[C@@H]1CCC(=O)N1`, for which the “% Inhibition” value is -10% and the Z score is listed as 1.09.

On to `NC(=O)CCS(=O)(=O)CCn1cc(-c2cc(F)cc(F)c2)nn1`, for which the “% Inhibition” value was -5% and the Z score is reported as 0.74.

Turning to `Cc1nn(CCO)c(C)c1-c1cc(-c2cc(F)c(F)c(F)c2)nc(N)c1C#N`, the “% Inhibition” value is -5% and the Z score worked out at 0.64.

In the case of `CO[C@@H](C)c1nc(CN(C)c2cccc(-n3cc(C)cn3)n2)cs1`, the “% Inhibition” value is 5% and the Z score was -0.61.

For `CCn1cc(S(=O)(=O)NCc2cc(C(C)C)on2)cn1`, the “% Inhibition” value was -9% and the Z score is on record as 1.69.

As for `CCOC(=O)N1CCN(C(=O)[C@H]2CCc3nn(C)c(=O)cc3C2)CC1`, the “% Inhibition” value was -20% and the Z score is given as 2.57.

On to `COc1cc2c(cc1CNC(=O)c1ccc(C)cc1)OCCCO2`, for which the “% Inhibition” value is -20% and the Z score came out at 2.81.

Take `O=C(c1cc2n(n1)CCCC2)N1CC[C@](CO)(c2ccccc2)C1`: the “% Inhibition” value is -7% and the Z score is given as 1.04.

With `Cc1ccc(C(=O)Nc2ccc3ncnc(N4CCCCC4)c3c2)c(C)c1`, the “% Inhibition” value is on record as -13% and the Z score was 1.3.

With `CC(=O)c1ccc2c(c1)N(Cc1cccc(C(=O)N3CCN(Cc4ccc5c(c4)OCO5)CC3)c1)C(=O)CO2`, the “% Inhibition” value is -19% and the Z score is given as 1.66.

Source of the values: ChEMBL document CHEMBL4888484, “Replenishing the malaria drug discovery pipeline: Screening and hit evaluation of the MMV Hit Generation Library 1 (HGL1) against asexual blood stage Plasmodium falciparum ,using a nano luciferase reporter read-out” (2022).
